Assay results taken from the RNAGym collection of RNA variant scans (doi:10.7554/elife.90254).
Read counts are not given, so values of variants with three or more changes are uncertain.

B1: LINE1-full (parent)
chain: UACGUAGGUGGUUUUCCCCUGAUAGUGCUAAGGGGGCCUGGAAGUUUGGACUGGGCAGAGCUCAACACAGCGUGGCAAAGUGGCUGUGGCUAGACUGCCUCUCUGGAUUCCUCGUCACUCAGCAGGGCAUCUCUGAGAGAAAUGCC

Variants of: B1
Assay: self-cleavage, relative activity (ratio to wild type); higher = more cleavage; in vitro, sequencing; the parent is a self-cleaving ribozyme

Variant | self-cleavage
U20C U96A A124G A142G U143A | 0.16
A22G A59G A140G | 0.57
U20C U73A A124G | 1.5
U20A U45G C113A | 1.07
U20A G36A A42G | 0.93
U20C A117U A141G | 1.5
A22C U29A A94U A107C | 0.64
A22G G32A U62C A65G A117U | 0.1
U20A U73A U130A | 0.75
U20C C95U U130A | 0.22
U20G U26A A94G C145U | 0.36
U20A U46A U100A | 0.86
A22C G60A G83C U102C A117C | 0.03
U20C A43G A79U U100C U134A | 2.8
U20A A43C G60A | 0.06
U20C U46C U100C | 0.93
U20C A24U A117G | 2.87
U20G U47C A141G | 0
G21A U52A A94G U143C | 0.2
U20G U52C U96A | 0.31
G21U A42G A140G | 2.27

Variant | self-cleavage
A22G A57G U109C | 0.64
A22G A69G U73A | 0.6
U20C A79G U132C | 2.55
A22C A78G U115C | 1.97
U20C G88A A121U U132C U143C | 0.1
A22G A30U U85C | 0.75
A22G A42U G49A U96C | 0.07
U20A G35A U39A U85A U91C A107G | 0.06
U20A U23C A24G A30G G55C A78U | 1.77
G21A U62C A67G A92G G114A | 0
U20C A77G U134G | 1.81
U20C C113A A138G | 1.21
U20C G34A G48A U87A | 0.06
U20C A43G A142G | 1.52
U20C U23C C76U A94G | 0.71
U20C A117U U119A | 1.75
A22G A50G U119C A142G | 1.08
U20G U73A U130C | 1.21
U20G G41A A42G U46C G88A U134C | 0.19
G21A U26A A121G | 1.31
A22G A64U U81C G106U | 0.24

Variant | self-cleavage
U20A U39A A50G A78U | 1.61
U20A A42G U130A | 0.4
U20C U46C A67C | 0
A22G A57G U100C | 0.61
A22G A79G U96A A124G | 0.22
U20C A43C U52A C103U | 1.84
U20G A30G A50G | 0
U20C U85C U134C | 0.16
U20C U46A A69G U85C | 0.32
A22G A43U U143C | 1.41
A22G C113U A142G | 0.82
U20A U73A A92G U100C | 0.06
U20C A50G A65G U91C | 0
U20C A42G C61U U119A A124U | 0.02
U20A U87C U109A | 0.06
U20C A78G A121U | 0.86
U20C C51A C76U U91C | 1.17
U20C G34A A117G | 1.59
U20A U85C U115C | 0
A22G C95U U112C | 0
U20C A64G A107U C123U A138G | 0.31

Variant | self-cleavage
U20C U104C A124G | 2.3
A22G C51U A117G U130C | 1.75
U20C U23C A64U A138G | 0.8
U20A U29A A42G | 1.08
A22G A124G U130C A140G | 2.92
U20A G74A U81C | 0.92
A22G G53A U96A | 0.02
U20C A42U A107G | 0.99
U20C U45A A77U | 0.56
U20C U73C U96A | 0.12
U20C U29C A78U | 1.31
U20C A65U U85C | 0.04
A22G A107G A141G | 1.59
U20C U132C U143A | 1.02
U20C A79G A138G A141G | 1.56
U20A U26A A141G | 0.96
U20C U26A U81C A107G | 0.61
U20G A22G U46C A140G | 1.05
U20C A67G A69G | 0
U20C A24G A79C U115A | 2.12
A22G A78U U130A | 2.58
